22 molecules from PubChem BioAssay (NCATS) can be followed below.

The assay can be described thus: qHTS Assay for Lipid Storage Modulators (AID 1519). Conditions: Drosophila S3 cells, BODIPY lipid droplet/cell ratio, laser cytometry, cells loaded with oleic acid. A digest of the protocol: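 Cells seeded at 5,000 per well were treated with compounds over a concentration series and loaded with oleic acid (400 uM, as added). Lipid droplet fluorescence (488 nm excitation, 500-530 nm channel) was read by laser-scanning cytometry and normalized to 20 uM Triacsin C.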

Where [1] appears, read: measured here: cell count channel max response.
The mark [2] stands for this setting: measured here: lipid (BODIPY) channel AC50.
Where [3] appears, read: measured here: lipid channel max response.
Setting [4] is: measured here: cell number channel AC50.

This is one part of the list. Further columns of the screen follow, without active or inactive calls. Most of these compounds were active or inconclusive in the main read-out, so they are no random draw. Words in brackets tell the shape of the fitted curve; partial curves, single points and poor fits give uncertain potencies.
Tags give direction and shape of the fitted curve.

As for `COc1ccc(C(=O)N2CCC3(CC2)CCN(c2cccc(-c4ccccc4)c2)CC3)cc1`, the max response turned out to be 13% under setting [1] and 24.1% under setting [3]. Further, the AC50 under setting [2] was 3980 nM [rising, full curve, poor fit].

In the case of `COCCn1c(=O)c(-c2cn(C)c3ccccc23)nc2cnc(N3CCNCC3)nc21`, the max response is, setting by setting: under setting [1], 23.6%; under setting [3], 27.6%. Under setting [2], the AC50 is 2820 nM [rising, full curve, poor fit].

For the molecule `CN1CCN(c2ncc3nc(-c4cccs4)c(=O)n(C[C@H]4CCCO4)c3n2)CC1`, the max response runs as follows: under setting [1], 18.2%; under setting [3], 23.8%. Moreover, the AC50 under setting [2] is 44.7 nM [rising, full curve, poor fit].

Consider `COc1ccccc1CNc1nc(-c2ccccc2OC)nc2ccccc12`, for which the max response under setting [1] worked out at 0.419% and the max response under setting [3] is -7.11%. Moreover, under setting [4], the AC50 is 1580 nM [rising, full curve, poor fit].

`O=C(Nc1ccccc1)N1CCCC2(CCN(C(=O)c3cnccn3)CC2)C1`: the max response by setting is: under setting [1], 23.3%; under setting [3], 31.6%. In addition, the AC50 under setting [2] was 17800 nM [rising, partial curve, poor fit].

In the case of `COc1ccc(-c2c(O)c3c(OC)c4c(cc3oc2=O)OC(C)(C)CC4)cc1`, the max response came to 27.3% under setting [1] and 38.3% under setting [3]. Moreover, the AC50 under setting [2] is 22400 nM [rising, partial curve, poor fit].

Consider `CC(=O)OC1CC2C(C)(C)C(=O)CC[C@]2(C)C2CC[C@]3(C)C(=CC(=O)OC3c3ccoc3)[C@]12C` (stereo partly specified), for which the max response by setting is: under setting [1], 14.3%; under setting [3], 35.5%. Besides, the AC50 under setting [2] was 39800 nM [rising, single point].

`Cc1cccc(CNc2ncncc2-c2cccc(NS(C)(=O)=O)c2)c1`: the max response reads like this: under setting [1], 19.6%; under setting [3], 31%. For the same molecule, the AC50 under setting [2] is 10000 nM [rising, partial curve, poor fit].

`O=c1c(-c2cccc(F)c2)nc2cncnc2n1Cc1ccc(F)cc1`: the max response runs as follows: under setting [1], 2.98%; under setting [3], -0.937%. The AC50 under setting [2] is 200 nM [rising, full curve, poor fit].

In the case of `COCC(=O)N1CCC2(CCCN(Cc3nccs3)C2)CC1`, the max response is, setting by setting: under setting [1], 29.5%; under setting [3], 35.8%. Besides, the AC50 under setting [2] was 6.31 nM [rising, full curve, poor fit].

Consider `O=C(c1ccncc1)N1CCC[C@@]2(CCN(Cc3cc(C(F)(F)F)cc(C(F)(F)F)c3)C2)C1`, for which the max response under setting [1] was 12.7% and the max response under setting [3] worked out at 22.3%. Moreover, under setting [2], the AC50 was 2240 nM [rising, partial curve, poor fit].

As to `COCCn1c(=O)c(-c2cn(C)c3ccccc23)nc2cnc(OCc3ccccc3)nc21`, the max response under setting [1] was 16.9% and the max response under setting [3] was 17.5%. For the same molecule, the concentration at half-maximal activity (AC50) under setting [2] is 355 nM [rising, full curve, poor fit].

With `O=C(c1csnn1)N1CCC2(CC1)CN(c1cccc(-c3ccccc3)c1)C2`, the max response is -9.66% under setting [1] and -7.67% under setting [3]. In addition, the AC50 under setting [2] is 141 nM [rising, partial curve, poor fit].

As for `Nc1nc(NCCc2ccc(O)cc2)nc2nc(-c3ccco3)nn12`, the max response runs as follows: under setting [1], 51.4%; under setting [3], 58.9%. Also, the AC50 under setting [4] is 4470 nM [rising, full curve, poor fit].

Take `NC(=O)NC(=O)Cc1ccccc1`: the max response came to 29.3% under setting [1] and 42.9% under setting [3]. Under setting [2], the AC50 is 39800 nM [rising, partial curve, poor fit].

With `O=c1c(-c2ccccc2)nc2cnc(Oc3cccc(Cl)c3)nc2n1C1CC1`, the max response reads like this: under setting [1], 15%; under setting [3], 11.5%. Also, under setting [4], the AC50 was 2820 nM [rising, single point].

Consider `COc1ccc(-c2nc3cnc(Oc4cccc(Cl)c4)nc3n(C[C@H]3CCCO3)c2=O)cc1`, for which the max response reads like this: under setting [1], 9.61%; under setting [3], -35.5%. Moreover, the AC50 under setting [2] was 25100 nM [falling, single point].

With `Cc1c(CC(C)(C)C(=O)O)n(Cc2ccc(Cl)cc2)c2ccc(F)cc12`, the max response is, setting by setting: under setting [1], 62.5%; under setting [3], 76.2%. Also, under setting [4], the AC50 was 39800 nM [rising, single point].

Regarding `Cn1c(=O)c(-c2ccc(F)cc2)nc2cnc(Oc3ccccc3)nc21`, the max response by setting is: under setting [1], 22%; under setting [3], 33.5%. Besides, under setting [2], the AC50 is 112 nM [rising, full curve, poor fit].

As to `CN(C)CCOC(c1ccccc1)c1ccccc1` (tested in a mixture with another compound), the max response is, setting by setting: under setting [1], 24.7%; under setting [3], 31.4%. Also, the AC50 under setting [2] is 6310 nM [rising, partial curve].

Take `CC(C)c1cccc(O)c(=O)c1`: the max response by setting is: under setting [1], -25%; under setting [3], -34.3%. Further, under setting [2], the AC50 was 8.91 nM [falling, full curve, poor fit].

Consider `N#Cc1ccccc1-c1ccc2ncnc(NCc3cccnc3)c2c1`, for which the max response reads like this: under setting [1], 16.5%; under setting [3], 23.1%. Also, under setting [2], the AC50 is 1410 nM [rising, full curve, poor fit].
